Laboratory results from PubChem BioAssay AID485344 (National Center for Advancing Translational Sciences (NCATS), 2010).
Hit rate of the full screen: of about 340,000 compounds, about 6,900 (2%) were called active. Cut-off read from the data, not from the text of the source: active = inhibition above about 30%; inactive = below that, where a call was filed. The list shows a part of the results, in another mix than the full data. Where no call is shown, the source filed none.

Molecular target: D(2) dopamine receptor (Homo sapiens) (UniProt P14416)
Chain of UniProt P14416 (P14416 whole entry, looked up): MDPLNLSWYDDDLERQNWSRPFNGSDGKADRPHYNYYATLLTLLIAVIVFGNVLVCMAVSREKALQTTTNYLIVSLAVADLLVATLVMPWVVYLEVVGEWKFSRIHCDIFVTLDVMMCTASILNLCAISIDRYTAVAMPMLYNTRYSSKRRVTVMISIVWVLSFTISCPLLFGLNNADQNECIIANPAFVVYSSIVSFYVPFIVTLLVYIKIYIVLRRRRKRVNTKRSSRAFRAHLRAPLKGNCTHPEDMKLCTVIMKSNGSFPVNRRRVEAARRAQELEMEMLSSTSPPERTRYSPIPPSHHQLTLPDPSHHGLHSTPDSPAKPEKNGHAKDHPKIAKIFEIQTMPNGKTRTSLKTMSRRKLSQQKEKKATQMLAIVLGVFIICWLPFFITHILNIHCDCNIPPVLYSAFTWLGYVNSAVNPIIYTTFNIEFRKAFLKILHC
Assay: HTS Assay for Allosteric Antagonists of the Human D2 Dopamine Receptor: Primary Screen for Antagonists; note: 0% is about no effect
Conditions: HEK293 TREx D2 cells, calcium flux, dopamine EC80; at 10 µM; stronger effect = higher value
How it was run: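 Calcium flux kinetic readout in an inducible HEK293 TREx D2 line plated overnight at 30 C. After 180 s compound exposure, an EC80 dopamine challenge follows with another 180 s kinetic read to detect antagonism.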

SMILES | inhibition
CCN(CC)c1ccc(NC(=O)C2CCN(S(=O)(=O)c3cnc[nH]3)CC2)c(C)c1 | 21.4%
O=C(CSc1nc(-c2ccc(F)cc2)[nH]c1-c1ccc(F)cc1)Nc1ccc2c(c1)OCCO2 | -9.41%
O=C1OC(C(=O)Nc2cc(C(F)(F)F)ccc2Cl)Cc2ccccc21 (configuration not stated) | -22.6%
Cc1ccc(C)c(N2CCN(C(=O)c3cnn(-c4ccccc4Cl)c3C3CCN(C(=O)OC(C)(C)C)CC3)CC2)c1 | -4.08%
COc1ccc(Cc2nc3ccc(C(=O)NCc4ccccc4Cl)cc3o2)cc1 | 22.5%
O=C(Nc1nnc(S(=O)(=O)N2CCc3ccccc32)s1)c1cccc(Cl)c1 | 2.59%
CCCC(CCC)C(=O)NC1CC(=O)N(c2ccc3c(c2)OCCO3)C1 (configuration not stated) | 0.0469%
Cc1ccc(/C=C(\C#N)c2nc3ccccc3c(=O)[nH]2)cc1 | -3.45%
O=c1nc2ccccc2c2n1CC(CN1CCN(C(c3ccccc3)c3ccccc3)CC1)N2 (configuration not stated) | active: 47.2%
COc1ccc(NC(=O)C2CCCN(c3nnc(C)c4c(C)n(-c5ccccc5)nc34)C2)cc1Cl (configuration not stated) | 6.11%
COCCOC(=O)c1c(-c2ccccc2)c(-c2ccccc2)nn(C)c1=O | -18.5%
CCc1ccccc1NC(=O)Cn1c(=O)n(Cc2ccc(OC)cc2)c(=O)c2oc3ccccc3c21 | 1.92%
CCOc1ccc(CC(=O)Nc2c(C(=O)c3ccccc3)oc3ccc(OC)cc23)cc1OCC | 5.25%
c1ccc(Cc2noc(CN3CCN(CCOc4ccccc4)CC3)n2)cc1 | active: 55.5%
Nc1ccc2[nH]ncc2c1 | active: 34%
CN(Cc1ccccc1)C(=O)CSc1nc(-c2ccc(F)cc2)cc(C(F)(F)F)n1 | 3.79%
O=c1nc(Nc2cccc(Cl)c2)oc2cc(Cl)oc(=O)c12 | active: 31.6%
O=C(/C=C/c1ccccc1Cl)Nc1nc(-c2cccs2)ns1 | -4.97%
COc1ccc(NC(=O)N2CCN(S(=O)(=O)c3ccc4c(ccn4C)c3)CC2)c(OC)c1 | -23.8%
Cc1nc2ccn(Cc3ccco3)c(=O)c2cc1C(=O)N1CCN(c2ccc(F)cc2)CC1 | 1.6%
O=C(Cn1cc(SCc2c(F)cccc2Cl)c2ccccc21)N1CCCC1 | -7.01%
CC(C)c1ccc(N2C(=O)CSC23C(=O)N(Cc2ccccc2)c2ccccc23)cc1 (configuration not stated) | 1.86%
Cc1ccc(NC(=O)Cn2c(=O)n(Cc3nc(C)no3)c(=O)c3cc4c(cc32)OCO4)cc1 | 7.01%

SMILES | inhibition
CCN(Cc1nc(-c2ccc(OC)c(OC)c2)no1)C(=O)c1ccc2c(c1)OCO2 | active: 37.4%
Cc1cc(NS(=O)(=O)c2ccc3oc(=O)c4ncn(C)c4c3c2)ccc1Br | -11.8%
Cc1ccc(C)c(OC(=O)CSc2nnc(-c3ccc4c(c3)OCO4)o2)c1 | -17%
CCCCc1ccc(NC(=O)c2ccc3c(c2)CCN3S(=O)(=O)c2ccccc2)cc1 | 1.31%
CCOc1cc(C(=O)Nc2ccc(S(=O)(=O)Nc3cc(OC)nc(OC)n3)cc2)cc(OCC)c1OCC | 9.61%
COC(=O)c1ccc(Cn2c(SCC(=O)N(C)c3ccccc3)nc3ccccc32)cc1 | 6.55%
CCOc1cc2[nH]c(=O)n(CCCC(=O)N3CCN(c4cccc(Cl)c4)CC3)c(=O)c2cc1OCC | 5.18%
COc1ccc(OC)c(NC(=O)N2CCC(CN3CCCCC3)CC2)c1 | 2.8%
COc1ccc(OC)c(CNc2sc3c(c2C(=O)Nc2cc(OC)ccc2OC)CCCC3)c1 | -7.14%
CC(C)Cn1cc(C(=O)N2CCN(c3cccc(Cl)c3)CC2)c2c3ccccc3n(C)c2c1=O | -12%
CC(=O)N1CCCc2cc(S(=O)(=O)N3CCCC(C(=O)Nc4cccc(Cl)c4C)C3)ccc21 (configuration not stated) | 20.2%
CCOC(=O)c1cnc2ccc(OCC)cc2c1Nc1cc(Cl)c(OC)cc1OC | -6.6%
CCC1=C(c2ccc(C)cc2)S(=O)(=O)N=C1N1CCC(C(=O)NCc2ccccc2Cl)CC1 | -6.01%
CCCCCOC(=O)c1ccc(OC(=O)c2sc3ncn(Cc4cccc(F)c4)c(=O)c3c2C)cc1 | -20.5%
CCCN(CCC)CCNC(=O)C1CCCN(S(=O)(=O)c2cccc3nsnc23)C1 (configuration not stated) | 6.6%
CCOC(=O)c1cc(S(=O)(=O)N2CCN(c3ccc(F)cc3)CC2)[nH]n1 | -22.3%
Cc1ccc(C)c(N2CCN(CCCNC(=O)c3nnc(Cc4ccc(F)cc4Cl)o3)CC2)c1 | 4.95%
CCn1c(=O)cc(OCC(=O)NCCCN2CC(C)CC(C)C2)c2ccccc21 (configuration not stated) | active: 58%
COCCn1c(SCC(=O)Nc2ccc(C(F)(F)F)cc2)nc2c([nH]c3ccccc32)c1=O | 5.66%
O=C(NCc1ccc2c(c1)CCN2C(=O)c1ccccc1)c1ccco1 | 22.7%
O=C(Nc1ccc(S(=O)(=O)N(Cc2ccccc2)c2ccccc2)cc1)c1ccc([N+](=O)[O-])cc1 | -13.5%
Cc1ccc(NC(=O)C(=O)NCCc2csc3nc(-c4ccccc4C)nn23)cc1Cl | -3.96%
COc1ccc(C(C#N)(CCC#N)CCC#N)cc1OC | active: 79.5%

SMILES | inhibition
O=C(NCc1ccccc1Cl)c1ccc(NC(=O)N2CCSc3ncccc32)cc1 | -1.85%
COc1cccc(N2CCN(C(=O)c3cc4c(=O)n(Cc5ccco5)ccc4nc3C)CC2)c1 | 6.99%
COCCCNC(=O)CN1C(=O)CSc2ccc(S(=O)(=O)N3CCOCC3)cc21 | -9.79%
Cc1cccn2c(=O)nc(SCC(=O)N3CCCCCC3)nc12 | active: 31.1%
CCCS(=O)(=O)N1CC(=O)N(c2ccc(Cl)cc2)C(C)(C(=O)NC2CCCC2)C1 (configuration not stated) | -0.291%
CCn1cc2nc(SCc3ccc(F)cc3)n(Cc3ccc(Cl)cc3)c(=O)c2n1 | 16.3%
CC(=O)Nc1ccc(Nc2nnc(-c3ccc(C)c(S(N)(=O)=O)c3)c3ccccc23)cc1 | 14.1%
O=C(C1CCN(S(=O)(=O)Cc2ccccc2)CC1)N1CCN(c2cccc(Cl)c2)CC1 | 13%
CC(C)CCNC(=O)Nc1cc(C(=O)NCc2cccc(F)c2)ccc1N1CCCC1 | -18.8%
COc1ccc2c(c1)c1c(c(=O)n(Cc3ccccc3)c(=O)n1CC(=O)Nc1ccc(C)cc1C)n2C | 13.4%
COc1ccc2c(c1)CC(C(=O)NCCN1CCN(c3cccc(C)c3C)CC1)CO2 (configuration not stated) | 12.3%
O=C(Nc1nnc(S(=O)(=O)N2CCCCCC2)s1)c1ccccc1Br | 17.7%
CCOc1ccc(NC(=O)/C(C#N)=C/c2ccc(N3CCCC3)c(C)c2)cc1 | active: 38.4%
CCOC(=O)c1ccc(CN(Cc2ccc(C)cc2)S(=O)(=O)c2ccc(NC(C)=O)cc2)cc1 | -19.1%
CSc1cccc(NC(=O)C2CCN(S(=O)(=O)c3ccc4[nH]c5c(c4c3)CCCCC5)CC2)c1 | 6.18%
N#Cc1ccc(Sc2ccccn2)c([N+](=O)[O-])c1 | active: 37.7%
CCOc1cccc(NC(=O)c2ccc(F)c(S(=O)(=O)N(CC)c3cccc(C)c3)c2)c1 | 23.8%
Cc1c(Cl)cccc1NC(=O)CSc1nc(=O)n(Cc2cccnc2)c2c1CCC2 | 17%
CC1CC(C)CN(CCCNC(=O)C2CCCN(c3ncnc4c3nc3n4CCCCC3)C2)C1 (configuration not stated) | active: 33.7%
Cc1c(Cl)cccc1-n1ncc(C(=O)Nc2ccc(F)cc2F)c1C1CCN(C(=O)OC(C)(C)C)CC1 | -1.1%
O=C1CC(c2nc(-c3ccccc3)no2)CN1c1ccc2c(c1)OCCO2 (configuration not stated) | 5.54%
Cc1cc(Cl)ccc1NS(=O)(=O)c1ccc2c(c1)CC(C)N2C(=O)C1CCC1 (configuration not stated) | -7.98%
Cc1ccc(-c2c3c(=O)n(C)c(=O)n(C)c3cn2-c2cc(C)ccc2O)cc1 | 0.035%

SMILES | inhibition
COc1cccc(NC(=O)Cn2c(=O)n(CC(=O)NCCc3ccccc3)c(=O)c3sccc32)c1 | -4.19%
COCCN1Cc2cccc(C(=O)Nc3ccc(Cl)cc3Cl)c2C1=O | 1.2%
CCN(CC)c1ccc(NC(=O)CN2C(=O)c3cccnc3Sc3ccccc32)c(C)c1 | -1.5%
CC(=O)N1CCc2c(sc3c2c(=O)n(CCc2ccccc2)c(=O)n3Cc2cccc(C)c2)C1 | 1.49%
COc1ccc2oc(-c3ccc(C)c(NC(=O)CSc4ccc(Cl)cc4)c3)nc2c1 | -7.27%
CC(=O)N1c2ccc(S(=O)(=O)N3CCN(c4cccc(Cl)c4)CC3)cc2CC1C (configuration not stated) | -2.56%
CCOc1cc(C2C(C(=O)OC)=C(C)NC3=C2C(=O)c2ccccc23)c(Br)cc1O (configuration not stated) | -9.51%
O=C(Cn1c(=O)c2cccn2c2ccc(F)cc21)N1CCN(c2ccccc2)CC1 | 11.4%
CCc1ccc(NC(=O)Cn2c(=O)n(CC3CCCO3)c(=O)c3cc(OC)c(OC)cc32)cc1 (configuration not stated) | 10.8%
COc1cccc(-n2c(=O)c3c(C)c(C(=O)N(C)C)sc3n(CC(=O)NCC3CCCO3)c2=O)c1 (configuration not stated) | active: 41.1%
Cc1ccc(-c2cc(C(F)(F)F)c(C#N)c(SCC(=O)O)n2)cc1 | 6.17%
Cc1ccccc1CNC(=O)C(=O)NCC(c1cccs1)S(=O)(=O)c1ccc(Cl)cc1 (configuration not stated) | -17.4%
Cc1cccc(N2CCN(Cc3nnc(-c4ccc5c(c4)OCO5)o3)CC2)c1C | -16%
N#Cc1cccc(Oc2ccc(S(=O)(=O)N3CCCC3)cn2)c1 | active: 35.2%
CCc1nn2c(=O)cc(COc3ccc(/C=C(\C#N)C(=O)Nc4ccc(C)cc4)cc3)nc2s1 | 7.46%
Cc1ccc(CSc2ncc(Cl)c(C(=O)Nc3sc4c(c3C(N)=O)CCCC4)n2)cc1 | 7.31%
CCCCNC(=O)CSc1cc(=O)n(C)c2ccccc12 | active: 35.4%
O=C(Cn1cnc2nc3c(cc2c1=O)CCCC3)N1CCN(c2ccccc2)CC1 | 9.93%
Cc1cc(C)cc(NC(=O)Cn2c3ncccc3c(=O)n2-c2ccc(C)c(C)c2)c1 | -0.833%
O=C(NCc1ccccc1)c1ccc2c(c1)nc1n2CCCCC1 | -3.03%
CC(C)CCn1c(O)c(N=NC(=O)c2ccco2)c2ccccc21 | active: 31.3%
O=C(NCC(c1ccccc1)c1ccccc1)c1nn(-c2ccccc2F)nc1CO | 9.91%
Oc1c(CN2CCN(c3ccccn3)CC2)cc(Cl)c2cccnc12 | active: 89.2%
